Assay results: a collection of fitness landscapes (doi:10.1126/science.1257360)
The other results are listed elsewhere or left out.

B1: PhoQ; a variant is named by its letters at X, in order, P23837 (parent)
chain: MKKLLRLFFPLSLRVRFLLATAAVVLVLSLAYGMVALIGYSVSFDKTTFRLLRGESNLFYTLAKWENNKLHVELPENIDKQSPTMTLIYDENGQLLWAQRDVPWLMKMIQPDWLKSNGFHEIEADVNDTSLLLSGDHSIQQQLQEVREDDDDAEMTHSVAVNVYPATSRMPKLTIVVVDTIPVELKSSYMVWSWFIYVLSANLLLVIPLLWVAAWWSLRPIEALAKEVRELEEHNRELLNPATTRELTSLVRNLNRLLKSERERYDKYRTTLTDLTHSLKTPLXXLQXXLRSLRSEKMSVSDAEPVMLEQISRISQQIGYYLHRASMRGGTLLSRELHPVAPLLDNLTSALNKVYQRKGVNISLDISPEISFVGEQNDFVEVMGNVLDNACKYCLEFVEISARQTDEHLYIVVEDDGPGIPLSKREVIFDRGQRVDTLRPGQGVGLAVAREITEQYEGKIVAGESMLGGARMEVIFGRQHSAPKDE

Variants of: B1
Test: enrichment ratio after two sorts for PhoP signalling (ratio (wild type AVST 3.29)); higher = more functional
Conditions: with PhoP (E. coli)

Row | Variant | enrichment ratio
1 | VIYD | ≤ 0.25
2 | FLTW | ≤ 0.25
3 | VEYC | ≤ 0.25
4 | GVWM | ≤ 0.25
5 | AYMS | ≤ 0.25
6 | SDCH | 3.65
7 | GRNF | ≤ 0.25
8 | TTVM | 3.4
9 | GVTF | 6.72
10 | PHRD | ≤ 0.25
11 | TQSK | ≤ 0.25
12 | FLKD | ≤ 0.25
13 | AQQH | ≤ 0.25
14 | ESMP | ≤ 0.25
15 | DWWI | ≤ 0.25
16 | FSHY | ≤ 0.25
17 | YLDL | ≤ 0.25
18 | WPVW | ≤ 0.25
19 | FDNP | ≤ 0.25
20 | QEDD | ≤ 0.25
21 | YRSH | ≤ 0.25
22 | ECRG | ≤ 0.25
23 | PCCH | ≤ 0.25
24 | WNDW | ≤ 0.25
25 | FNSD | ≤ 0.25
26 | YSIV | ≤ 0.25

Row | Variant | enrichment ratio
27 | GRDA | ≤ 0.25
28 | VNGD | ≤ 0.25
29 | MKKK | ≤ 0.25
30 | QYDV | ≤ 0.25
31 | SWKH | ≤ 0.25
32 | TETK | ≤ 0.25
33 | DTNC | ≤ 0.25
34 | TFQC | ≤ 0.25
35 | KMCS | ≤ 0.25
36 | FTLN | 4.08
37 | MRTP | ≤ 0.25
38 | FHCM | ≤ 0.25
39 | HCLV | ≤ 0.25
40 | VDVD | ≤ 0.25
41 | LWSA | ≤ 0.25
42 | QLVS | ≤ 0.25
43 | NQQR | ≤ 0.25
44 | SQER | ≤ 0.25
45 | GVTH | ≤ 0.25
46 | MENQ | ≤ 0.25
47 | NIWQ | ≤ 0.25
48 | AYMA | ≤ 0.25
49 | TIEQ | ≤ 0.25
50 | DCFE | ≤ 0.25
51 | PWHH | ≤ 0.25
52 | QRFY | ≤ 0.25

Row | Variant | enrichment ratio
53 | RNVN | ≤ 0.25
54 | KTSN | ≤ 0.25
55 | KQWF | ≤ 0.25
56 | LIVA | ≤ 0.25
57 | VSFF | ≤ 0.25
58 | TPCC | ≤ 0.25
59 | MMEM | ≤ 0.25
60 | KCHA | ≤ 0.25
61 | TSLE | 7.09
62 | RQKS | ≤ 0.25
63 | FRSC | ≤ 0.25
64 | SGNS | ≤ 0.25
65 | PIKA | ≤ 0.25
66 | CFAI | ≤ 0.25
67 | YYQS | ≤ 0.25
68 | VAHE | ≤ 0.25
69 | WSIV | 0.674
70 | TFIC | ≤ 0.25
71 | RRRC | ≤ 0.25
72 | LSSM | ≤ 0.25
73 | PMDA | ≤ 0.25
74 | SNDY | ≤ 0.25
75 | ENVC | ≤ 0.25
76 | ACFK | ≤ 0.25
77 | ENDL | ≤ 0.25
78 | VLHH | ≤ 0.25

Row | Variant | enrichment ratio
79 | IKAR | ≤ 0.25
80 | ETSP | ≤ 0.25
81 | KLYV | ≤ 0.25
82 | PHSS | ≤ 0.25
83 | KTLR | ≤ 0.25
84 | VMDR | ≤ 0.25
85 | YMRQ | ≤ 0.25
86 | GEDI | ≤ 0.25
87 | IHKM | ≤ 0.25
88 | RDNQ | ≤ 0.25
89 | VSYM | 5.7
90 | ITMA | ≤ 0.25
91 | TGAM | 13
92 | IFML | ≤ 0.25
93 | EDRP | ≤ 0.25
94 | VRYE | ≤ 0.25
95 | FWEH | ≤ 0.25
96 | LHWK | ≤ 0.25
97 | SYFM | ≤ 0.25
98 | WMSV | ≤ 0.25
99 | DLRR | ≤ 0.25
100 | PLVT | ≤ 0.25
101 | RSMT | ≤ 0.25
102 | GFSK | ≤ 0.25
103 | NAYY | ≤ 0.25
104 | AIRH | ≤ 0.25

Row | Variant | enrichment ratio
105 | RALT | ≤ 0.25
106 | DSER | ≤ 0.25
107 | VNRL | ≤ 0.25
108 | MFYF | ≤ 0.25
109 | AVFK | ≤ 0.25
110 | NHMQ | ≤ 0.25
111 | REMQ | ≤ 0.25
112 | GDSA | ≤ 0.25
113 | GGMS | 1.56
114 | SNTS | 8.3
115 | PRLW | ≤ 0.25
116 | NFRT | ≤ 0.25
117 | HHSF | ≤ 0.25
118 | TQDY | ≤ 0.25
119 | DFYN | ≤ 0.25
120 | RNHC | ≤ 0.25
121 | NRVV | ≤ 0.25
122 | TLKW | ≤ 0.25
123 | AHTM | 5.22
124 | GYFD | ≤ 0.25
125 | YFEE | ≤ 0.25
126 | VDSR | ≤ 0.25
127 | MDFT | ≤ 0.25
128 | WYAR | ≤ 0.25
129 | VSRV | ≤ 0.25
130 | GVSQ | 2.65

Row | Variant | enrichment ratio
131 | SEIE | ≤ 0.25
132 | SSDT | ≤ 0.25
133 | HWDN | ≤ 0.25
134 | NVHF | ≤ 0.25
135 | VWDD | ≤ 0.25
136 | GMAE | ≤ 0.25
137 | TNER | ≤ 0.25
138 | HYGN | ≤ 0.25
139 | LQFM | 2.67
140 | KIFP | ≤ 0.25
141 | PNHW | ≤ 0.25
142 | MCGV | 13.4
143 | EMDA | ≤ 0.25
144 | MSYE | 5.11
145 | KCGS | ≤ 0.25
146 | NWRF | ≤ 0.25
147 | AWHW | ≤ 0.25
148 | TRTP | ≤ 0.25
149 | WHYG | ≤ 0.25
150 | GAYR | ≤ 0.25
151 | VLPR | ≤ 0.25
152 | MQIV | ≤ 0.25
153 | DMLL | ≤ 0.25
